Reference: PubChem BioAssay AID504832 (National Center for Advancing Translational Sciences (NCATS), 2011)
In all, about 310,000 compounds went through this assay and about 18,000 (5.8%) were called active. The shares of active, inactive and inconclusive entries below differ from those in the screen. Calls follow the shape of the dose curve; as a rule, active = well fitted inhibition curve with a large enough effect; inconclusive = small, poorly fitted or top-dose-only effect, or another doubt; inactive = no such curve, though single readings can be large or run the other way. Potencies of inconclusive entries are left out as doubtful fits.

Experiment: Primary qHTS for delayed death inhibitors of the malarial parasite plastid, 48 hour incubation
Details: P. falciparum luciferase growth in erythrocytes; series mostly up to 28.7 µM; activity change, negative = inhibition: at the top concentration
Summary of the method: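 Growth was read as firefly luciferase luminescence after a 48 h, 37 C, 5% CO2 exposure of compounds to reporter-bearing P. falciparum cultures (0.1% parasitemia, 2% hematocrit final) in Albumax-supplemented RPMI 1640.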
% is scaled to controls: 0 for no effect and ±100 for the full control effect; potency is read from the fitted curve at half-maximal effect; tags tell the direction and shape of the fitted curve.

SMILES | activity change, negative = inhibition | Potency
CCOc1ccc(S(=O)(=O)N2CCC(C(=O)NCC3CCCO3)CC2)cc1Cl (centres undefined) | inactive: -3.44% | –
CCOc1ccc(CCNC(=O)CSc2nn(-c3ccc(C)c(Cl)c3)c(=S)s2)cc1OCC | – | inconclusive [inhibitor, partial curve, poor fit]
O=C(Nc1cccc(F)c1)NC1CCN(Cc2ccccc2)CC1 | – | inconclusive [inhibitor, single point]
CN1CCC(N(C)C(=O)COc2ccc(S(=O)(=O)N3CCOCC3)cc2)CC1 | inactive: 2.37% | –
O=c1[nH]c(C(F)(F)F)nc2ccc3ccccc3c12 | inactive: 6.38% | –
COc1ccc(CNC(=O)CN2C(=O)CSc3ccc(S(=O)(=O)N4CCCCC4)cc32)cc1 | – | inconclusive [inhibitor, single point]
CN(C)C(=O)C(=O)c1c(-c2ccccc2)cc2ccccn12 | inactive: -2.94% | –
CCOc1ncccc1C(=O)Nc1cc(S(=O)(=O)N2CCCCC2)ccc1C | – | active: 11.7 µM
O=C(Cc1cccs1)Nc1cccc(-c2ccc3nncn3n2)c1 | – | inconclusive [inhibitor, single point]
COCCNC(=S)N1CCN(S(=O)(=O)c2ccc(Cl)s2)CC1 | – | inconclusive [inhibitor, partial curve]
Cc1ccc(OCC(=O)Nc2ccc3oc(=O)ccc3c2)cc1C | inactive: 16.6% | –
CCNc1nc(NCC)nc(ON=C(C)C)n1 | – | active: 3.7 µM
CCn1cc(C(=O)N2CCc3ccccc32)c(=O)c2cc(S(=O)(=O)N3CCCC3)ccc21 | – | inconclusive [inhibitor, partial curve, poor fit]
O=C(/C=C/c1ccc(Br)cc1)c1ccc(NC2=NCCCS2)cc1 | – | inconclusive [inhibitor, single point]
CCN(CC)CCNC(=O)C1c2cc(OC)c(OC)cc2C(=O)N2CCc3ccccc3C12 (centres undefined) | – | inconclusive [inhibitor, partial curve, poor fit]
Fc1ccccc1C1c2[nH]c3ccccc3c2CCN1Cc1ccoc1 (centres undefined) | – | inconclusive [inhibitor, single point]
COc1ccc(C2C3=C(CC(C)(C)CC3=O)Nc3c2c(=O)[nH]c(=O)n3Cc2ccccc2)cc1 (centres undefined) | – | inconclusive [inhibitor, partial curve]
CC(C)(C)n1nnnc1C(c1cccnc1)N1CCN(c2cccc(C(F)(F)F)c2)CC1 (centres undefined) | – | active: 3.7 µM
CCOc1ncccc1C(=O)NNC(=O)c1cccc(S(=O)(=O)Nc2ccccc2OC)c1 | – | inconclusive [inhibitor, partial curve, poor fit]
COc1ccc(N2CCN(C(=O)c3cc4c(s3)CCCCC4)CC2)cc1 | – | inconclusive [inhibitor, partial curve, poor fit]
Cc1ccc(NC(=O)COc2ccc(C(=O)c3ccccc3)cc2)c(O)c1 | – | inconclusive [inhibitor, single point]
COc1ccc(C(=O)CCC(=O)O)c2ccccc12 | inactive: 0.443% | –
CC[n+]1c(C)sc2sc3ccccc3c21 | – | active: 1.85 µM

SMILES | activity change, negative = inhibition | Potency
CN1CCN(C(=O)CCCN2C(=O)/C(=C/c3cccc(Br)c3)SC2=S)CC1 | – | inconclusive [inhibitor, partial curve]
CC(=O)Nc1ccc(NC(=O)CSc2ccc(-c3cccs3)nn2)cc1 | inactive: 188% | –
CCNC(=S)N1CCC(C(N)=O)CC1 | inactive: 16.8% | –
CCOc1ccccc1N1CC(O)=C(c2nc3ccccc3s2)C1=N | – | inconclusive [inhibitor, single point]
CCCc1ccc(S(=O)(=O)N2CCN(C(C)C(=O)NCc3ccccc3)CC2)cc1 (centres undefined) | – | inconclusive [inhibitor, single point]
CC(=O)NCCC(=O)Nc1cc(S(=O)(=O)N2CCCCC2)ccc1Oc1ccccc1 | inactive: 21.9% | –
CN1CCN(C(=O)c2cnn(-c3ccccc3)c2NC(=O)c2ccc([N+](=O)[O-])cc2)CC1 | – | inconclusive [inhibitor, partial curve, poor fit]
CCOC(=O)C1=NNC2(c3ccc(C)cc3)C(=O)N(c3ccc(Cl)cc3)C(=O)C12 (centres undefined) | inactive: 4.62% | –
CN(CC(=O)Nc1cccc(F)c1)C(=O)c1ccc(-c2cccc(C(F)(F)F)c2)o1 | – | active: 0.329 µM
Cc1nc(OCc2ccccc2)c2sc3nc4c(cc3c2n1)COC(C)(C)C4 | – | inconclusive [inhibitor, single point]
Cc1ccc(C)c(NC(=S)NCc2ccccc2)c1 | – | inconclusive [inhibitor, single point]
CCC(C)(C)NC(=O)C(C(C)C)N(CC1CCCO1)C(=O)CNS(=O)(=O)c1ccc(F)cc1 (centres undefined) | – | inconclusive [inhibitor, partial curve, poor fit]
CN1CCN(C(c2cccnc2)c2ccc3cccnc3c2O)CC1 (centres undefined) | – | inconclusive [inhibitor, single point]
O=Nc1c(O)n(Cc2ccc(Cl)cc2)c2ccccc12 | – | active: 13.1 µM
CC(Nc1nc(N2CCN(CCO)CC2)nc2ccccc12)c1ccccc1 (centres undefined) | – | inconclusive [inhibitor, single point]
C#CCOCCOCCOCCNc1nc(N2CCN(C(=O)[C@H](Cc3cc4ccccc4[nH]3)n3cc([C@@H](N)Cc4ccc(O)cc4)nn3)CC2)nc(N2CCN(C(=O)[C@H](Cc3cc4ccccc4[nH]3)n3cc([C@@H](N)CC(C)C)nn3)CC2)n1 | – | active: 13.1 µM
C#Cc1ccc([C@@H]2C=C(C(=O)OCC=C)O[C@H](OCCCCO)C2)cc1 | – | inconclusive [inhibitor, full curve]
NC(=O)C1Cc2ccccc2CN1C(=O)c1nn(Cc2ccccc2)c(=O)c2ccccc12 (centres undefined) | – | active: 9.28 µM
CN1/C(=C\C(=O)c2oc3ccccc3c2N)C(C)(C)c2ccccc21 | – | inconclusive [inhibitor, single point]
CCC/C(O)=C1\C(=O)CC(c2ccccc2)CC1=NCCc1c(C)[nH]c2ccc(C)cc12 (centres undefined) | – | active: 1.85 µM
Cc1ncsc1C(=O)N1N=C2/C(=C/c3ccccc3)CCCC2C1c1ccccc1 (centres undefined) | – | inconclusive [inhibitor, partial curve]
COc1ccc(C2CC(c3ccccc3)=NN2C(=O)c2ccc(F)cc2)cc1 (centres undefined) | – | active: 11.7 µM
O=C(NCc1ccccn1)c1cccc(NS(=O)(=O)c2ccc(Br)cc2)c1 | inactive: 4.78% | –

SMILES | activity change, negative = inhibition | Potency
CCc1ccc(-n2cnc3cc(C(=O)NCC(OC)OC)ccc32)cc1 | – | inconclusive [inhibitor, partial curve, poor fit]
CC(C)c1ccc(-c2nnc(N)s2)cc1 | inactive: 157% | –
Nc1nonc1C(=O)NCCNCc1c(OCc2ccccc2F)ccc2ccccc12 | – | active: 4.65 µM
COc1ccc(C2/C(=C(\O)c3cccc(OC)c3)C(=O)C(=O)N2c2ccccn2)cc1 (centres undefined) | – | inconclusive [inhibitor, full curve, poor fit]
COc1ccc(S(=O)(=O)N2CCCOC2CNC(=O)C(=O)NCc2cccnc2)cc1 (centres undefined) | inactive: -4.88% | –
CCCS(=O)(=O)c1c(S(=O)(=O)CCC)c2ccc(C(N)=O)cn2c1C(=O)c1ccccc1 | inactive: -28.9% | –
COc1ccc(N2CC(C)Cn3c2nc2c3c(=O)n(Cc3ccc(F)cc3)c(=O)n2C)c(OC)c1 (centres undefined) | – | inconclusive [inhibitor, full curve]
CC1=C(C(=O)Nc2cccc(C(=O)NCc3ccc(F)cc3)c2)SCCO1 | inactive: -1.75% | –
CC1(C)N=C(N)N=C(N)N1c1cccc(CN)c1 | – | active: 0.828 µM
CCN1CCN(C(c2ccccn2)c2c(NC(=O)c3ccccc3)sc(C)c2C)CC1 (centres undefined) | – | inconclusive [inhibitor, partial curve]
CCOC(=O)/C(C#N)=C/Nc1cc(C(C)(C)C)sc1C(C)=O | – | inconclusive [inhibitor, partial curve, poor fit]
Cc1cc(C)cc(NS(=O)(=O)c2ccc(NC(=S)NC(=O)c3cccs3)cc2)c1 | – | inconclusive [inhibitor, single point]
C=CCNCCCCOc1cccc(Br)c1 | – | inconclusive [inhibitor, partial curve, poor fit]
O=C(CN1C(=O)NC2(CCOc3ccccc32)C1=O)c1ccc(Cl)s1 (centres undefined) | – | inconclusive [inhibitor, partial curve]
CCOc1ccc(NCc2nnc(SCc3ccc(Cl)cc3)n2-c2ccccc2)cc1 | – | inconclusive [inhibitor, single point]
COc1ccc(OCc2nc3c4c(ncn3n2)-c2ccccc2CC42CCCC2)cc1 | – | inconclusive [inhibitor, single point]
Clc1ccc(/C=N/Nc2nn[nH]n2)cc1 | – | inconclusive [inhibitor, single point]
CC(C)NC(=O)c1cc2cc([N+](=O)[O-])ccc2s1 | inactive: 18.1% | –
CCN(CCCNC(=O)CCn1c(=S)[nH]c2cc3c(cc2c1=O)OCO3)c1cccc(C)c1 | inactive: -2.83% | –
COc1cccc(C(=O)N2CCN(c3ccc(N4CCOCC4)nn3)CC2)c1 | inactive: -19.2% | –
COc1ccc(C(=O)NC(=S)Nc2ccccc2N2CCN(S(C)(=O)=O)CC2)cc1OC | – | inconclusive [inhibitor, single point]
O=S(=O)(NCC(c1cccnc1)N1CCN(Cc2ccccc2)CC1)c1cc(F)ccc1F (centres undefined) | – | inconclusive [inhibitor, single point]
c1nc(Nc2ccc(N3CCOCC3)cc2)c2ccsc2n1 | inactive: 87.6% | –
